# From publication PMC4336329 (PLoS ONE, 2015)
# Among all 310,000 compounds or so, about 2,200 (0.71%) showed an effect of 50% or more. The effect is printed as a negative number. Some of the results follow.
# Target: human ether-à-go-go-related gene (hERG) potassium channel (human, UniProt Q12809)
# Assay: primary screen, population patch clamp on CHO cells stably expressing hERG
# Chain of human ether-à-go-go-related gene (hERG) potassium channel (Q12809 whole entry, looked up): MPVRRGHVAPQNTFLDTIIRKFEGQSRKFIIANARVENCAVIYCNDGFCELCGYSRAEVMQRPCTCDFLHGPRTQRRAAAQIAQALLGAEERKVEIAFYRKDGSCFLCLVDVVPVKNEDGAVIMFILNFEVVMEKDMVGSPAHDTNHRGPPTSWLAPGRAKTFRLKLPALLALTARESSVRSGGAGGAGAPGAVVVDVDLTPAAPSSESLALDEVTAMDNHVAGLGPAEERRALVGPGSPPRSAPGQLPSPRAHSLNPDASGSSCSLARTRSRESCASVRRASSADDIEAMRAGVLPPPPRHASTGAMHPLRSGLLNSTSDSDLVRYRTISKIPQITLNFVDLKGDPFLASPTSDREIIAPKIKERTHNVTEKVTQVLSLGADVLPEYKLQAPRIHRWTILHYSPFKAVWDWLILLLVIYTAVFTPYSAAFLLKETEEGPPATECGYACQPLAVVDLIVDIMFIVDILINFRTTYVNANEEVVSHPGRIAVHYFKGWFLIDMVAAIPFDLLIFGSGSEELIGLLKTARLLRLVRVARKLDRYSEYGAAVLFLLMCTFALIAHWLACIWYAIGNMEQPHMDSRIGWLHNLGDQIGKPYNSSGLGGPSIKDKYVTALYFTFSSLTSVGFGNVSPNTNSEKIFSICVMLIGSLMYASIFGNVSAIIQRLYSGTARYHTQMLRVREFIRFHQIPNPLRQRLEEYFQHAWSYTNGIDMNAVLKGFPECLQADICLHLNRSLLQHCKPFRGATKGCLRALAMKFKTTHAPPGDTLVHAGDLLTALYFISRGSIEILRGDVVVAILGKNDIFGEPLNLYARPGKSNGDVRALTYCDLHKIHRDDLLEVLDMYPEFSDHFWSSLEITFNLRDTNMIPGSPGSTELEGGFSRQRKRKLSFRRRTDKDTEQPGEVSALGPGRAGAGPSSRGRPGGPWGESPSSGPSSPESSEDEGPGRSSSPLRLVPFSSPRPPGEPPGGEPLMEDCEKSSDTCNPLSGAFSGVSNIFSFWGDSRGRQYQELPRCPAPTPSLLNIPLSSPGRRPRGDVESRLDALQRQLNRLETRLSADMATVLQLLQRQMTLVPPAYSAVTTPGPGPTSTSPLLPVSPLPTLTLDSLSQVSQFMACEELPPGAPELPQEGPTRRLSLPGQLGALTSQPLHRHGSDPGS
row,Compound,"hERG current change (%, negative = inhibition) at 1uM [%]"
1,CCOc1ccc(/C=N/n2c(COc3ccccc3)n[nH]c2=S)cc1OC,12.8
2,Cc1cc(NC(=O)CSc2nnc(COc3ccccc3)o2)no1,8.73
3,Cc1cc(NC(=O)/C=C/c2cccc(F)c2)n(-c2nc3ccccc3[nH]2)n1,12.1
4,Cc1ccc(NC(=O)COC(=O)C2CCC(=O)N2)c(S(=O)(=O)N2CCOCC2)c1 (stereo not shown),15.2
5,Cc1c(C(=O)NN2CCOCC2)oc2c1ccc1ccccc12,7.77
6,CN(C)S(=O)(=O)c1cccc(NC(=O)CNCC2CCCCC2)c1.O=C(O)C(=O)O,11.6
7,COc1ccc(C(CNC(=O)CNC(=O)c2ccccc2Cl)N2CCCC2)cc1 (stereo not shown),-4.67
8,CN(CC(=O)Nc1ccccc1Br)C(=O)CCc1ccccc1,12.4
9,Cc1ccc(S(=O)(=O)N2CC(=O)Nc3ccccc32)cc1C,2.01
10,COc1ccc(N(C(C)C(=O)Nc2ccc(S(=O)(=O)N3CCCCC3)cc2)S(C)(=O)=O)cc1 (stereo not shown),15.7
11,CCCOc1ccc(/C=N/O)cc1,8.85
12,O=S(=O)(Nc1cccc(-c2nnco2)c1)c1ccc(F)cc1F,16.9
13,Cc1cc(NC(=O)CSc2nc(-c3ccc(Br)cc3)nc3c2c(=O)n(C)c(=O)n3C)no1,-5.64
14,Cc1cc(C)cc(Nc2cc(=O)n(C3CCCCC3)c(=O)[nH]2)c1,12.5
15,CCOCc1cc(CN2CCCC(CNC(=O)c3ccco3)C2)ccc1OC (stereo not shown),2.56
16,Cc1sc(NC(=O)C(C)C)c(C(=O)Nc2ccccc2)c1C,8.88
17,O=[N+]([O-])c1ccc(/C=N/Nc2ccc3ccccc3c2)o1,8.66
18,CSc1cc(N2CCOCC2)nc(-c2ccccc2Cl)n1,8.07
19,COc1ccccc1CN1CCN(Cc2ccc3ccccc3c2)CC1.O=C(O)C(=O)O,-6.96
20,O=C(c1ccc2c(=O)n(Cc3ccc4c(c3)OCO4)c(=S)[nH]c2c1)N1CCC2(CC1)OCCO2,-5.09
21,CCCCCOc1ccc(C)cc1CN(CCCl)CCCl.Cl,12
22,CC(=O)NC(CC(=O)NCC(=O)Nc1ccc(F)c(F)c1)c1ccccc1 (stereo not shown),13.5
23,Cc1cc(C)c(S(=O)(=O)NCCOc2ccccc2)c(C)c1-n1cnnn1,7.17

row,Compound,"hERG current change (%, negative = inhibition) at 1uM [%]"
1,Cc1cc(NC(=O)Cn2c(=O)c3c(ncn3CCC(C)C)n(Cc3ccccc3)c2=O)no1,-1.6
2,O=C(Cc1cccs1)Nc1ccc(F)cc1F,11.5
3,O=C(NC(=S)N1CCCCC1c1cccnc1)c1ccc(F)cc1 (stereo not shown),4.92
4,O=C(CSc1nnc(CNC(=O)c2ccccc2F)o1)NCCc1ccccc1,7.81
5,Clc1ccccc1OCCn1nnc2ccccc21,11.5
6,O=C1OCCN1CCNCc1cn(-c2ccc(F)cc2)nc1-c1ccccc1Cl,-3.06
7,COC(=O)CSc1nnnn1-c1ccccc1,17.7
8,O=C(COC(=O)c1cc(S(=O)(=O)N2CCOCC2)ccc1O)NCCc1ccccc1,5.85
9,CC(=N/O)/C(C)=N\NC(=O)c1ccccn1,12.4
10,Cc1ccccc1NC(=O)c1ccccc1,1.48
11,Fc1cccc(Cl)c1/C=N/Nc1c(Cl)cncc1Cl,6.26
12,Cc1cc(NCc2ccccc2)c2ccccc2n1.Cl,-29.5
13,O=C(CN(c1ccccc1)S(=O)(=O)c1ccc(F)cc1)NC1CCCCCC1,-5
14,CCOc1cc(C)c(S(=O)(=O)Nc2ccc(F)cc2)cc1C,-1.66
15,N#CC1=C(N)SC(N)=C(C#N)C1CCC1CCCCC1,6.56
16,CC(Nc1cccc2ccccc12)C(=O)N/N=C/c1ccc([N+](=O)[O-])cc1 (stereo not shown),2.64
17,Cc1nn(Cc2cccc(C(=O)Nc3ccn(Cc4ccccc4)n3)c2)c(C)c1[N+](=O)[O-],-0.602
18,O=C1c2cccc3cccc(c23)C(=O)N1Cc1cccnc1,3.02
19,CCCC(=O)Nc1nc(C)c(-c2csc(Nc3ccccc3OC)n2)s1,11.5
20,CCOC(=O)c1c(NC(=O)CSc2nnc(C)s2)sc2c1CCCCC2,13.1
21,CCOc1ccc(CCNC(=O)COC(=O)c2ccc(C)c([N+](=O)[O-])c2)cc1OCC,2.16
22,COC(=O)c1cc(-c2c(C)oc3cc(OC(C)C)ccc3c2=O)c(C)o1,3.43
23,OCC1(Cc2ccc(Cl)cc2)CCN(Cc2ccc(Oc3ncccn3)cc2)CC1,-25.1

row,Compound,"hERG current change (%, negative = inhibition) at 1uM [%]"
1,COc1ccc(SC[C@H](Cc2ccccc2)N2CCN(CCc3ccccc3)CCC2=O)cc1,-43.2
2,Nc1ccccc1NC(=O)NC(=O)c1ccccc1,11.8
3,CC1=[N+](C)c2ccc3ccccc3c2C1(C)C,3.87
4,COC(=O)c1ccc(Cl)c(NC(=O)CN2CCOCC2)c1,8.67
5,CNCC(O)Cn1c(C(F)(F)F)nc2ccccc21 (stereo not shown),15.9
6,CCC(C(=O)OCC(=O)Nc1cccc(OC)c1)c1ccccc1 (stereo not shown),6.9
7,CC(C)NC(=O)C1CC(=O)N(c2ccc(F)c(Cl)c2)C1 (stereo not shown),5.09
8,Cc1nc(SCCO)c2oc3ccccc3c2n1,15.1
9,COc1cccc(NC(=S)N(CCc2c(C)[nH]c3ccccc23)Cc2ccco2)c1,7.94
10,CCOc1ccc(C(=O)CN2CCN(S(=O)(=O)c3ccc(Cl)cc3)CC2)cc1,-10.4
11,O=S(=O)(NCc1ccco1)c1ccc2ccccc2c1,6.47
12,COC(=O)C1=C(O)/C(=C\c2cc(C)n(-c3ccccc3C)c2C)N=C1C,11.9
13,COc1cccc2c(C)cc(N3CCCCCC3)nc12,-14.6
14,CCOC(=O)c1c(NC(=O)CSc2nnc(-c3ccc(OC)cc3)o2)sc2c1CCC2,4.23
15,O=C(C(Cc1ccccc1)N1C(=O)c2ccccc2C1=O)N1c2ccccc2CCc2ccccc21 (stereo not shown),7.57
16,CC(C)Oc1ccccc1C(=O)NC(CO)C(=O)O (stereo not shown),18.7
17,Cc1ccc(-n2c3nc(=O)[nH]c(=O)c-3cc3c(C)nn(-c4ccccc4)c32)c(C)c1,16.2
18,CCN(C(=O)COC(=O)c1ccc(=O)n(Cc2ccccc2)n1)C1CCCCC1,9.55
19,CCOc1cccc(N)c1,8.49
20,COC(=O)c1sccc1NC(=O)c1c(Cl)cccc1Cl,17.3
21,CC1Cn2c(COc3ccccc3)nnc2S1 (stereo not shown),6.3
22,Cc1cccc(-n2c(CNC(=O)c3ccccc3)nnc2SCC(=O)Nc2nccs2)c1,16.6
23,CC1=CC(C)C(COC(=O)CN2CCCCC2)C(C)C1 (stereo not shown),9.9

row,Compound,"hERG current change (%, negative = inhibition) at 1uM [%]"
1,Cc1nnc(NC(=O)CSc2ccc([N+](=O)[O-])cn2)s1,2.7
2,O=C(Nc1ccc(Cl)cc1)N1CCCN(c2ccc(C(F)(F)F)cc2[N+](=O)[O-])CC1,9.25
3,N#CC1=C(N)C(C#N)(C#N)C(c2cccnc2)C2CN(C(=O)OCc3ccccc3)CC=C12 (stereo not shown),3.56
4,CCOC(=O)C1CCN(c2nc3ccccc3nc2C(C#N)C(=O)OC(C)COC)CC1 (stereo not shown),0.363
5,Cc1nc2ccc(NC(=O)CS(=O)(=O)c3ccccc3)cc2s1,16.6
6,NS(=O)(=O)c1ccc(N=Nc2c(O)[nH]c(=S)[nH]c2=O)cc1,16.8
7,Cc1nc(Sc2nnnn2C)c2c3c(sc2n1)CCC3,3.42
8,COC(=O)c1ccccc1NC(=O)Nc1cc(C)cc(C)n1,-0.329
9,O=C(NCc1ccncc1)C(=O)Nc1nc2ccccc2s1,1.46
10,COC(=O)CCC(=O)c1ccc(OC)c(Cl)c1,7.22
11,Nc1cc(S(=O)(=O)C(F)(F)F)ccc1C(=O)O,13.3
12,CCCn1nc(C(=O)NC2CCCCCC2)c2ccccc2c1=O,0.398
13,COc1ccc(NC(=O)c2cc3ccccc3o2)cc1,6.91
14,O=C(N/N=C/c1ccccc1)c1c(O)c2ccccc2[nH]c1=O,3.01
15,CS(=O)(=O)Nc1nnc(Cc2ccccc2)s1,7.74
16,N#Cc1cn(Cc2ccncc2)c(=O)[nH]c1=O,17.4
17,N#C/C(=C\c1ccccc1)c1nc2ncccc2[nH]1,9.95
18,Cc1ccc(N2C(=O)/C(=C/c3ccco3)SC2=S)cc1,14.3
19,Cc1ccc(C)c(OCCC(=O)OCC(=O)N2CCN(S(=O)(=O)c3ccc(Cl)cc3)CC2)c1,-1.39
20,Cc1c(/C=N/NC(=O)c2ccc3c(c2)OCO3)cnn1C,7.92
21,CC(C)(C)c1ccc(N/N=C(\C#N)S(=O)(=O)C(C)(C)C)cc1,16.5
22,COc1cc(C2c3c(oc4c(C)cc(C)cc4c3=O)C(=O)N2Cc2cccnc2)ccc1O (stereo not shown),11.9
